Assay results: patent publication US20250051434A1 (Merck Sharp & Dohme, published 2025)
Numbering of substitutions follows the chain as printed. One block for each binder: values may come before it.

Assays:
Test in all cases: cell-based or functional assay
[1] = molecular target: T1, human IL-12 receptor (IL-12R) (human, UniProt P42701 24-662; Q99665 24-862)
[2] = molecular target: T1, human IL-12 receptor (IL-12R); remark: listed apart in the source
[3] = molecular target: rhesus monkey IL-12 receptor (rhesus monkey)
[4] = molecular target: T1, human IL-12 receptor (IL-12R); remark: listed apart in the source

T1 sequence (Q99665 24-862, chain 2 of 2, other chains not shown): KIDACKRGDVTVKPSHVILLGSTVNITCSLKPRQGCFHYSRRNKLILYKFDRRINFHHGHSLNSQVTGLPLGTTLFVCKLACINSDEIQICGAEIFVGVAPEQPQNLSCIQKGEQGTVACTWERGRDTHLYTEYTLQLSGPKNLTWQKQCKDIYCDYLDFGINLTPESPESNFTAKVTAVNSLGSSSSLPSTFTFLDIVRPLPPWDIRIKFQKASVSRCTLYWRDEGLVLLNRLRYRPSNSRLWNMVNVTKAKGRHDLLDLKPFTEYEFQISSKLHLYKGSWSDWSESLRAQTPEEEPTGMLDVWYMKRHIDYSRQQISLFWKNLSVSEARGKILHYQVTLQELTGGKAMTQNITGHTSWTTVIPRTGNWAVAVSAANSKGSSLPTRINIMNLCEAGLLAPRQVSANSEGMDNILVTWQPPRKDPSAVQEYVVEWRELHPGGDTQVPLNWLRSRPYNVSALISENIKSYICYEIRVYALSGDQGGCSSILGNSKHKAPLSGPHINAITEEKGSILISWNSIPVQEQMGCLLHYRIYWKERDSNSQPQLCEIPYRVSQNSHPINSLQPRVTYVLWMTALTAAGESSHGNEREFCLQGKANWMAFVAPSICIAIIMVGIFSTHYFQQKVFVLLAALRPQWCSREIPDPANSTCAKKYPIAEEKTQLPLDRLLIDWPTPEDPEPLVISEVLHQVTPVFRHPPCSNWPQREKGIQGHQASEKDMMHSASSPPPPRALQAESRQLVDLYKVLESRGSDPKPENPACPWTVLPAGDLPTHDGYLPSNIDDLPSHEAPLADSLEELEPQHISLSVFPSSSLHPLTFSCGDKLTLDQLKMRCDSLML

Mean Fold Reduction (potency vs IL-12 WT by EC50; HEK-Blue IL-12 STAT4/SEAP reporter) [1]: 17 fold
HEK Reporter Median EC50 values (ng/mL) (n = 3) [2]: 35 ng/mL
Human PBMC Median EC50 values (ng/ml); IFNγ release from activated human PBMC in vitro (n = 8) [2]: 33 ng/mL
Rhesus PBMC Median EC50 values (ng/ml); IFNγ release from activated rhesus PBMC in vitro (n = 10) [3]: 87 ng/mL
HEK-Blue IL-12 cells potency assay (FIG. 4): fold potency reduction vs wild-type [4]: 30 fold
B1: IL-12-Fc-18 (Fc fusion)
chain 1: TPDPGMFPCLHHSQNLLRAVSNMLQKARQTLEFYPCTSEEIDHEDITKDKTSTVEACLPLELTKNESCLNSRETSFITNGSCLASRKTSFMMALCLSSIYEDLKMYQVEFKTMNAKLLMDPKRQIFLDQNMLAVIDELMQALNFNSETVPQKSSLEEPDFSKTKIKLCILLHAFRIRAVTIDRVMSYLNASGGGGSGGGGSGGGGS[skipping human IgG1 Fc with L234A L235A D265S S354C T366W (EU numbers)]
chain 2: IWELKKDVYVVELDWYPDAPGEMVVLTCDTPEEDGITWTLDQSSEVLGSGKTLTIQVKEFGDAGQYTCHKGGEVLSHSLLLLHKKEDGIWSTDILKDQKEPKNKTFLRCEAKNYSGRFTCWWLTTISTDLTFSVKSSRGSSDPQGVTCGAATLSAERVRGDNKEYEYSVECQEDSACPAAEESLPIEVMVDAVHKLKYENYTSSFFIRDIIKPDPPKNLQLKPLKNSRQVEVSWEYPDTWSTPHSYFSLTFCVQVQGKSKREKKDRVFTDKTSATVICRKNASISVRAQDRYYSSSWSEWASVPCSGGGGDKTHTCPPCPAPEAAGGPSVFLFPPKPKDTLMISRTPEVTCVVVSVSHEDPEVKFNWYVDGVEVHNAKTKPREEQYNSTYRVVSVLTVLHQDWLNGKEYKCKVSNKALPAPIEKTISKAKGQPREPQVCTLPPSRDELTKNQVSLSCAVKGFYPSDIAVEWESNGQPENNYKTTPPVLDSDGSFFLVSKLTVDKSRWQQGNVFSCSVMHEALHNHYTQKSLSLSPGK

Mean Fold Reduction (potency vs IL-12 WT by EC50; HEK-Blue IL-12 STAT4/SEAP reporter) [1]: 49 fold
HEK Reporter Median EC50 values (ng/mL) (n = 3) [2]: 198 ng/mL
Human PBMC Median EC50 values (ng/ml); IFNγ release from activated human PBMC in vitro (n = 8) [2]: 178 ng/mL
Rhesus PBMC Median EC50 values (ng/ml); IFNγ release from activated rhesus PBMC in vitro (n = 10) [3]: 365 ng/mL
HEK-Blue IL-12 cells potency assay (FIG. 4): fold potency reduction vs wild-type [4]: 200 fold
B2: IL-12-Fc-19 (Fc fusion)
chain 1: B1 chain 1 with S161T
chain 2: B1 chain 2
